Results taken from PubChem BioAssay AID360 (National Center for Advancing Translational Sciences (NCATS), 2006).
The campaign covered roughly 48,000 compounds. About 550 (1.1%) were called active. Not shown: some 4% with an inconclusive outcome. Cut-off read from the data, not from the text of the source: active = potency below about 15 µM; inconclusive = mostly about 16 µM to 33 µM; inactive = weaker than that. The list shows a part of the results.

The compounds below were run against Lysosomal acid glucosylceramidase (Homo sapiens) (UniProt P04062) (assay: Glucocerebrosidase). Conditions: purified enzyme, resorufin glucoside fluorescence (screen aimed at inhibitors), 20 min.
UniProt P04062, sequence (P04062 whole entry, looked up): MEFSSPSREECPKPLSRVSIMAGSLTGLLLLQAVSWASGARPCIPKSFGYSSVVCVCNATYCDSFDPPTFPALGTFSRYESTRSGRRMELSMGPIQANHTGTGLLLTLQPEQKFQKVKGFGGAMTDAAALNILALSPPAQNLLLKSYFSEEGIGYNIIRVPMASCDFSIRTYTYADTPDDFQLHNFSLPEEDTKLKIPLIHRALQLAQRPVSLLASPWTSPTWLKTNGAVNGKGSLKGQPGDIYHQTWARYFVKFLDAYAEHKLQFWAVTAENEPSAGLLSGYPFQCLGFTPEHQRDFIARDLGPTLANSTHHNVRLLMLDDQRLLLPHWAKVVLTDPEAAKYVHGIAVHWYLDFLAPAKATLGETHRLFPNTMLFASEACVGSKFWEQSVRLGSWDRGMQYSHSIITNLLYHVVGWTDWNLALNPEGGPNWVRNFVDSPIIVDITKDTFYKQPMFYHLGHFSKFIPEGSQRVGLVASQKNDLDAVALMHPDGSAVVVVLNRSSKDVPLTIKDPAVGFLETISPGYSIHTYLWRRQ
In short: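 Wild-type enzyme at 0.2 nM final in 50mM citric acid/KH2PO4, 10mM sodium taurocholate, 0.01% tween-20, pH 5.9, with resorufin beta-D-glucopyranoside at 30 uM final. Compounds titrated, 20 min at RT, red fluorescence read; AC50 from titration.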
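Note: the screen sought inhibitors.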
Potency is the fitted concentration of half-maximal effect.

Potency, inactive:
Cc1ccc(C)c(C2=CSC3=NCCN23)c1 > 76.9 µM, CCN(CC)CCCn1c(C)cc2c(c1=O)C(c1cc(OC)c(OC)cc1OC)C(C#N)=C(N)O2 (centres undefined) > 76.9 µM, CNC(=O)CSc1nnc(COc2ccc(Cl)cc2)n1CCOC > 76.9 µM, Cc1nccn1CC(=O)O > 76.9 µM, COc1ccccc1N1CCN(C(c2cccs2)c2nnnn2C2CCCC2)CC1 (centres undefined) > 76.9 µM, c1nc(N2CCOCC2)c2[nH]cnc2n1 > 76.9 µM, O=C1OCCC1Sc1nnc(-c2ccc(Br)cc2)o1 (centres undefined) > 76.9 µM, CN(C(=O)C1CCOC1)c1nnc(-c2cnccn2)s1 (centres undefined) > 76.9 µM, O=C(OCC#CCSc1nnc(-c2ccncc2)o1)c1cccs1 > 76.9 µM, Nc1nc(C(=O)N2CCOCC2)nn1S(=O)(=O)c1ccc(Cl)cc1 > 76.9 µM, O=C(OC1CCOC1=O)c1ccc(-c2nc3ccccc3s2)s1 (centres undefined) > 76.9 µM, CCC(=O)NC1(C(F)(F)F)C(=O)NC(C)=C1C#N (centres undefined) > 76.9 µM, CN(Cc1ccccc1)c1nc2c(c(=O)[nH]c(=O)n2C)n1CCSc1nc2ccccc2[nH]1 > 76.9 µM, CC(C)(C)c1ccc(C(=O)NCc2cccnc2)cc1 > 76.9 µM, Cc1nn(CC(=O)N(C)C)c(=O)c2ccccc12 > 76.9 µM, Cc1cc(C)n2nc(SCC3COc4ccccc4O3)nc2n1 (centres undefined) > 76.9 µM, CCOC(=O)Cc1csc(NC(=O)c2cccc(N3C(=O)CCC3=O)c2)n1 > 76.9 µM, OCCN(Cc1ccccc1)Cc1cccc(F)c1 > 76.9 µM, Cc1ccc(Cn2c(CN3CCOCC3)nc3c2c(=O)n(C)c(=O)n3C)cc1 > 76.9 µM, CN(C)C(CNc1nnnn1-c1ccccc1)c1ccco1 (centres undefined) > 76.9 µM, Cc1cc(C)nc(NC(=O)CCCC(=O)O)c1 > 76.9 µM, O=C(Nc1ccc(S(=O)(=O)Nc2cnc3ccccc3n2)cc1)c1ccc(Br)o1 > 76.9 µM, CN(c1ccccc1C(=O)NCc1ccco1)S(C)(=O)=O > 76.9 µM, O=C(NCCCN1CCOCC1)C1CC(=O)N(C2CCCCC2)C1 (centres undefined) > 76.9 µM, O=C(CCCN1C(=O)c2cccnc2C1=O)N1CC(=O)N(CCc2ccccc2)C(=O)C1 > 76.9 µM, Cc1ccnc(SCC(=O)N2CCC(C(N)=O)CC2)n1 > 76.9 µM, O=C(CSc1nnc(CNc2ccc(F)cc2)n1Cc1ccccc1)N1CCOCC1 > 76.9 µM, Cc1ncoc1C(=O)Nc1ccc(Oc2ccccc2)cc1 > 76.9 µM, CCOC(=O)c1sc(/N=C/Nc2nc(C)c(C(=O)OCC)s2)nc1C > 76.9 µM, CCOc1cc(S(=O)(=O)N2CCCCC2)ccc1Cl > 76.9 µM, O=C(Cn1c(=O)n(Cc2ccco2)c(=O)c2c3c(sc21)CCCC3)Nc1ccccc1 > 76.9 µM, COc1ccc(OC)c(-n2nnnc2SCC(=O)NCCc2ccccc2)c1 > 76.9 µM, COc1ccc(OC)c(C2=C[N+](=O)C(C)(C)C(C)(C)N2[O-])c1 > 76.9 µM, O=c1ccnc(SCc2ccccc2Cl)[nH]1 > 76.9 µM, CC(=O)c1c(COC(=O)c2cccnc2)nc2ccccc2[n+]1[O-] > 76.9 µM, CCOC(=O)CSC1=C(C#N)C(c2ccco2)C(C(=O)OCc2ccccc2)=C(C)N1 (centres undefined), CCOc1ccccc1OCC(O)CNC (centres undefined) > 76.9 µM, CNC(=O)CSCCn1c(SCC(=O)NC)nc2ccccc2c1=O > 76.9 µM, CCOC(=O)c1nn(-c2c(C)n(C)n(-c3ccccc3)c2=O)cc1O > 76.9 µM, CCCCC(=O)NCc1ccc2c(c1)cc(C)n2C > 76.9 µM, Cc1ccccc1OCC(=O)NCCN1CCCC1 > 76.9 µM, CCCn1cc(C(CC(=O)O)C(=O)O)c2ccccc21 (centres undefined) > 76.9 µM, O=C(NCCCN1CCOCC1)C1(c2ccccc2)CCCC1, O=S(=O)(c1ccc2c(c1)OCCO2)N1CCN(c2cccc(Cl)c2)CC1 > 76.9 µM, Cc1cc2ccccc2c(=O)n1CC(=O)NCC(=O)N1CCN(c2cccc(Cl)c2)CC1 > 76.9 µM, Cn1nccc1C(=O)NCCN1C(=O)OC(C)(C)C1(C)O (centres undefined) > 76.9 µM, COC(=O)c1sc(=S)n(-c2ccccc2)c1N > 76.9 µM, Cc1sc(NC(=O)c2ccco2)nc1-c1ccc2c(c1)CC(C)N2C(=O)C1CC1 (centres undefined) > 76.9 µM, COc1ccccc1Cn1c(=O)c2ccccc2n2c(SCC(=O)N3CCCCC3)nnc12 > 76.9 µM, CCCc1cc(=O)[nH]c(SCC(=O)N(CC(C)C)C2CCS(=O)(=O)C2)n1 (centres undefined) > 76.9 µM, Cc1ccc(S(=O)(=O)NC(CC(=O)N2CCc3ccccc32)c2ccco2)cc1 (centres undefined) > 76.9 µM, CCn1c(-c2ccc(N(C)C)cc2)nc2ccccc21 > 76.9 µM, COc1ccc(-c2nnc3ccc(SC(C(C)=O)C(C)=O)nn23)cc1OC > 76.9 µM, COC(=O)c1cc(=O)nc2sc(-c3cccs3)nn12 > 76.9 µM, CCn1c(=O)cc(OCC(=O)NCCCN2CCC(C)CC2)c2ccccc21 > 76.9 µM, COC(=O)COc1ccc(S(=O)(=O)Nc2ccc(NC(C)=O)cc2)cc1 > 76.9 µM, CCCCCCNC(=O)CC(NS(=O)(=O)c1ccc(NC(C)=O)cc1)C(C)C (centres undefined) > 76.9 µM, COc1ccc(OC(C)C(=O)N2CCc3ccccc3C2)cc1 (centres undefined) > 76.9 µM, CC1CCN(S(=O)(=O)c2ccc(NC(=O)Cn3nnc(-c4ccccc4F)n3)cc2)CC1 > 76.9 µM, O=C(NCc1ccco1)C1CC(=O)N(c2ccc(F)cc2)C1 (centres undefined) > 76.9 µM, O=C(CSc1nnnn1C1CCCC1)c1ccc2c(c1)OCCO2 > 76.9 µM, O=C(CCCC(=O)N(CC(=O)NC1CCCCC1)CC1CCCO1)Nc1ccccn1 (centres undefined) > 76.9 µM, O=c1nc(N2CCCC2)nc(Nc2ccccc2)[nH]1 > 76.9 µM, Cc1cccc(C)c1NC1=NC(C)(C)N=C(N)N1 > 76.9 µM, CC(=O)c1cccc(-n2nnnc2SCC(=O)Nc2ccccc2N2CCCCC2)c1 > 76.9 µM, O=C(Oc1ccc(-c2nnco2)cc1)N1CCCCC1 > 76.9 µM, O=C(c1c(Cl)cccc1Cl)N1CCCCCC1 > 76.9 µM, CN1CCN(C(=O)C2C3C=CC(C3)C2C(=O)O)CC1 (centres undefined) > 76.9 µM, O=S(=O)(NC1CCCC1)c1ccccc1Cl > 76.9 µM, CCCC(=O)Nc1nn(C)c2nc3c(C)cccc3cc12 > 76.9 µM, CCC(C)C(=O)Nc1cc(OC)c(OC)cc1C(=O)O (centres undefined) > 76.9 µM, CCC(C)[C@H](NC(=O)NCCCN1CCOCC1)C(=O)OC (some centres undefined) > 76.9 µM, Cc1ccccc1-n1nc(C(=O)O)c(C)c(C#N)c1=O > 76.9 µM, O=S(=O)(NC1CCCCCC1)c1cccc2cccnc12 > 76.9 µM, Cc1c(C(=O)NCCc2ccccc2)oc2ccc(S(=O)(=O)N3CCOCC3)cc12 > 76.9 µM, CCOC(=O)/C=C1\SCC(=O)N1CC(=O)NC1CCCCC1 > 76.9 µM, O=C(NC(O)C(=O)c1cccs1)c1cccnc1 (centres undefined) > 76.9 µM, COc1ccc(N2CC(C(=O)OCC(=O)c3cccc(OC)c3)CC2=O)cc1 (centres undefined) > 76.9 µM, O=C(Cn1cnc2c(nnn2Cc2ccc(F)cc2)c1=O)OCc1ccccc1 > 76.9 µM, CC(=O)c1cccc(NC(=O)c2nccnc2C(=O)O)c1 > 76.9 µM, CCSc1nc(N)c2c3c(sc2n1)CN(C)CC3 > 76.9 µM, Cc1ccc(C(=O)COC(=O)CCc2nc3ccccc3[nH]c2=O)cc1C > 76.9 µM, OC1(c2ccc(Br)cc2)CCNCC1 > 76.9 µM, Cc1nn(CC(=O)NCC2CCCO2)c(=O)c2ccccc12 (centres undefined) > 76.9 µM, COc1ccc2nc(SCC(=O)NC(C)(C)C)[nH]c2c1 > 76.9 µM, COc1ccc(OC)c(C2C(C(C)=O)=C(O)C(=O)N2c2ccc(O)cc2)c1 (centres undefined) > 76.9 µM, Cn1c(=O)c2c(nc(CN3CCCCC3)n2CCc2ccccc2)n(C)c1=O > 76.9 µM, CC1CN(CC(O)COc2ccccc2C(C)(C)C)CC(C)O1 (centres undefined), CCc1ccc(CCC(=O)Nc2ccc(C)cc2C)o1 > 76.9 µM, COc1ccc(N(C(=O)Nc2ccc(Cl)cc2)C2=NCCC2)cc1 > 76.9 µM, CC(C)(C)OC(=O)N[C@@H](Cc1ccccc1)c1nnc(SCC(=O)O)o1 > 76.9 µM, COc1cccc(N2CCN(CC(=O)Nc3nc4c(s3)CC(C)CC4)CC2)c1 (centres undefined) > 76.9 µM, COc1ccc(C(=O)Nn2c(SCC(=O)NCc3ccco3)nc3ccccc3c2=O)cc1 > 76.9 µM, CCOC(=O)NC1(NCc2ccccc2)Oc2ccccc2O1 > 76.9 µM
